Literature values, collected in PMC9804470, “A Formylglycine‐Peptide for the Site‐Directed Identification of Phosphotyrosine‐Mimetic Fragments” (Chemistry (Weinheim an Der Bergstrasse, Germany), 2022).

Tested on: PTP1B
Conditions: read-out: KM value as substrate of PTP1B; phosphopeptide as substrate; cited from earlier work

In the case of “Ac‐Asp‐Ala‐Asp‐Glu‐Tyr*‐Leu‐NH2 [Compound 1]”, the Km is given as 3.6 µM.
